Measured values: PubChem BioAssay AID686978 (National Center for Advancing Translational Sciences (NCATS), 2013)
The whole screen tested about 420,000 compounds, of which about 64,000 (15%) were called active. The inconclusive results got no clear call from the source; some entries with a clear call stand among them for comparison. Calls follow the shape of the dose curve; as a rule, active = well fitted inhibition curve with a large enough effect; inconclusive = small, poorly fitted or top-dose-only effect; inactive = flat fitted curve, though single readings scatter. No potency is given beside an inconclusive call; the fits are too rough.

Experiment: qHTS for Inhibitors of human tyrosyl-DNA phosphodiesterase 1 (TDP1): qHTS in cells in absence of CPT; also: nearly all actives have a fitted effect of over 55% in size
Conditions: DT40 Tdp1-/- hTDP1 cells, no CPT, ATP luminescence, 48 h; activity change, negative = growth inhibition: at 46.2 µM (top of the series) unless noted
Summary of the method: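 Readout: luminescence from CellTiter-Glo after 30 min in the dark at RT. Cells: DT40 Tdp1-/- with stable hTDP1, 400/well. Exposure: compounds alone, ≥48 hr, 37 °C.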
% is scaled to controls: 0 for no effect and ±100 for the full control effect; potency is read from the fitted curve at half-maximal effect; tags tell the direction and shape of the fitted curve.

| SMILES | activity change, negative = growth inhibition | Potency |
| --- | --- | --- |
| Cc1cc(=O)c2cc(C(=O)Nc3ccccc3C)ccc2[nH]1 | inactive: -18% | – |
| CCC(C)c1ccccc1NC(=O)COC(=O)c1ccc(C)c(NC(=O)c2ccco2)c1 (stereo unspecified) | – | inconclusive [inhibitor, single point] |
| CCSc1ncc(Cl)c(C(=O)Nc2sc3c(c2C(=O)OC)CCCC3)n1 | inactive: -8.09% | – |
| COCCNC(=O)CN(C(=O)c1ccc(N2CCCC2)nc1)c1ccc(Cl)cc1 | inactive: -10.7% | – |
| CCOc1cc2sc(N3CCC(C(=O)Nc4cc(C)cc(C)c4)CC3)nc2cc1Br | inactive: -54.1% | – |
| COc1ccc(CCC(=O)Nc2cnc3ccccc3c2)cc1 | inactive: 3.81% | – |
| Cc1ccc(Cl)cc1N1CCN(C(c2cccnc2)c2nnnn2C2CCCCC2)CC1 (stereo unspecified) | – | inconclusive [inhibitor, single point] |
| CCc1cccc(C)c1NC(=S)N(CCN(C)C)Cc1cccs1 | – | inconclusive [inhibitor, single point] |
| COc1ccc(Cn2ccc3nc(C)c(C(=O)NCc4cccc(OC)c4)cc3c2=O)cc1 | – | inconclusive [inhibitor, single point] |
| CCOc1ccc(N2CC(C(=O)NC3=NCCS3)CC2=O)cc1 (stereo unspecified) | inactive: -5.59% | – |
| C/C(CC(=O)Nc1ccc(OCc2ccccc2)cc1)=N\NC(=O)C(=O)Nc1ccccc1C | – | inconclusive [inhibitor, single point] |
| CCCC(=O)Nc1cc(OC)c(NC(=S)Nc2ccc(CC)cc2)cc1OC | – | active: 16.4 µM |
| CCC(=O)NNc1nc2c(C)cc(C)cc2s1 | inactive: -0.0313% | – |
| S=c1ncc2n[nH]nc2[nH]1 | inactive: 1.2% | – |
| CCOC(=O)c1c[nH]c2ccc3ccccc3c2c1=O | – | inconclusive [inhibitor, single point] |
| O=C(CNc1cccc([N+](=O)[O-])c1)NCCCc1ccccc1 | – | inconclusive [inhibitor, full curve] |
| CN1CCN(c2ccc([N+](=O)[O-])cc2NC(=O)c2ccccc2)CC1 | inactive: -12.3% | – |
| CN(C(=O)COC(=O)c1cc(S(=O)(=O)N2CCCCC2)ccc1Cl)c1ccccc1 | – | inconclusive [inhibitor, single point] |
| O=C(c1ccc(C(F)(F)F)cc1)N(CCCn1ccnc1)C(c1ccccn1)c1nc2ccccc2[nH]1 (stereo unspecified) | inactive: -16.4% | – |
| Cc1nn(-c2ccccc2)cc1C(=S)Nc1ccccc1 | inactive: -29.9% | – |
| COc1ccccc1N(CC(=O)Nc1cc(S(=O)(=O)N(C)C)ccc1C)S(=O)(=O)c1cccs1 | – | inconclusive [inhibitor, single point] |
| COC(=O)[C@]1(C)CCC[C@@]2(C)C3CC[C@]4(OC(C)=O)C[C@@]3(CCC21)CC4=NO (stereo partly specified) | – | active: 16.4 µM |
| CCCc1nc2ccccc2c(C(=O)OCC(=O)Nc2ccc(S(=O)(=O)N3CCOCC3)cc2)c1CC | – | active: 16.4 µM |

| SMILES | activity change, negative = growth inhibition | Potency |
| --- | --- | --- |
| Cn1ncc2c(Nc3ccc4ccccc4c3)ncnc21 | – | inconclusive [inhibitor, single point] |
| COC(=O)c1ccc(CSc2nnc3ccc4ccccc4n23)cc1 | – | inconclusive [inhibitor, single point] |
| CCc1nc(N[C@H](C(=O)O)C(C)CC)c2oc3ccccc3c2n1 (stereo partly specified) | – | inconclusive [inhibitor, single point] |
| CCN(CCCNC(=O)C1c2ccccc2C(=O)N(CCOC)C1c1ccc(F)cc1)Cc1ccccc1 (stereo unspecified) | – | inconclusive [inhibitor, full curve, poor fit] |
| Clc1ccc(-c2cc3nc(NCc4cccc(Cl)c4)ccn3n2)cc1 | – | active: 25.9 µM |
| COc1ccccc1Cn1cc(C(=O)c2ccc(C)cc2)c(=O)c2cc3c(cc21)OCCO3 | – | active: 20.6 µM |
| CCn1c(SC(C)C(=O)NCC2CCCO2)nc2scc(-c3ccccc3)c2c1=O (stereo unspecified) | – | inconclusive [inhibitor, single point] |
| CCCC(=O)N1c2ccccc2[C@@H](N(C(C)=O)c2ccccc2)C[C@H]1C | – | inconclusive [inhibitor, partial curve, poor fit] |
| COc1cc2c(=O)n(Cc3ccccc3)c(=O)n(CC(=O)NCc3ccco3)c2cc1OC | – | inconclusive [inhibitor, partial curve] |
| CN1CCc2cc3c(c4c2[C@H]1[C@H](O)c1ccccc1-4)OCO3 | – | inconclusive [inhibitor, single point] |
| COc1c(C(CC(C)C)OC(C)=O)ccc2c1C(=O)OCc1cc(C)cc(O)c1O2 (stereo unspecified) | – | active: 11.6 µM |
| O=S(=O)(c1ccc2c(c1)OCCO2)N1CCNCC1 | inactive: 1.79% | – |
| O=C(CN1CCN(Cc2ccccc2)CC1)Nc1ccc(S(=O)(=O)N2CCOCC2)cc1 | – | inconclusive [inhibitor, single point] |
| Cc1ccc(CNc2nc3cc(-c4ccccc4C)sc3c(=O)n2C)c(C)c1 | – | inconclusive [inhibitor, full curve, poor fit] |
| O=C(NCc1nc2ccccc2[nH]1)C1=C[C@@H](c2ccc(C(F)(F)F)cc2)C[C@@H](OCCCCO)O1 | – | inconclusive [inhibitor, single point] |
| CCOC(=O)c1c(C)[nH]c(C)c1C(=O)COC(=O)CSc1ccc(C)cc1 | – | inconclusive [inhibitor, partial curve] |
| Cc1ccccc1NC(=O)COC(=O)CC1CCCC1 | inactive: -14.3% | – |
| Oc1ccccc1C(Nc1nccs1)c1ccc2cccnc2c1O (stereo unspecified) | – | active: 2.59 µM |
| CC(=O)N1CCN=C1SCc1cccc(F)c1 | inactive: -3.35% | – |
| CON=C(C(=O)NC1C(=O)N2C(C(=O)O)=C(CSc3nc(=O)c(=O)[nH]n3C)CSC12)c1csc(N)n1 (stereo unspecified) | inactive: 12.8% | – |
| CCc1ccc(C(c2c(C)nn(-c3ccccc3)c2N)c2c(C)nn(-c3ccccc3)c2N)cc1 | – | inconclusive [inhibitor, single point] |
| O=C1CC/C=C\C[C@@H](CC(=O)N(CCO)Cc2ccccc2)C(=O)N[C@H](Cc2c[nH]c3ccccc23)CO1 | – | inconclusive [inhibitor, single point] |
| CCc1c(N=O)c(-c2ccccc2)n(O)[n+]1[O-] | – | inconclusive [inhibitor, single point] |
